# Data reported in PubChem BioAssay (NCATS).
# This list was built around the results that the source calls inconclusive (neither active nor inactive); the mix of calls is not that of the screen. For part of these data: Potencies beside an inconclusive call are fits to weak or partial responses and may not hold up. For part of these data: “Side channel” marks fits to a control or component signal instead of the main read-out. Activity calls are given as the source filed them. Unless noted, the call rests on the fitted dose curve.
# What was measured:
# [1] = MultiTox-Fluor Cytotoxicity Assay - LYMP1-002 - Dead Cells (AID 960; active means well fitted curve in the direction sought with a large enough effect; inconclusive means small, poorly fitted or top-dose-only effect, or another doubt; inactive means no such curve, though single readings can be large; an effect the other way counts as inactive or inconclusive;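 further: 0% = DMSO and 100% = tetraoctylammonium bromide; nearly all actives have a fitted effect of over 60% in size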); details: LYMP1-002 lymphoblastoid cells, dead-cell protease fluorescence; cytotoxicity (dead cells): at 46.1 µM (top of the series)
# Method in brief: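 Cells were plated, rested 5 hr, then treated with compound dilution series for 16 hr at 37 C. After adding substrate reagent and 60 min at room temperature, dead-cell protease fluorescence gave concentration-response curves fitted by the Hill equation.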
# [2] = Cell Viability - LYMP2-011 (AID 969; active means well fitted curve in the direction sought with a large enough effect; inconclusive means small, poorly fitted or top-dose-only effect, or another doubt; inactive means no such curve, though single readings can be large; an effect the other way counts as inactive or inconclusive;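 further: 0% = DMSO only and full inhibition = 92 µM tetraoctylammonium bromide; nearly all actives have a fitted effect of over 60% in size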)
# Method in brief: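 In this qHTS cytotoxicity format, compounds are tested across concentrations on human lymphoblastoid cells in complete medium for 24 hours at 37 C. Viability is taken as cellular ATP measured by luciferase luminescence.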
# [3] = Cell Viability - LYMP2-008 (AID 980; active means well fitted curve in the direction sought with a large enough effect; inconclusive means small, poorly fitted or top-dose-only effect, or another doubt; inactive means no such curve, though single readings can be large; an effect the other way counts as inactive or inconclusive;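 further: cells exposed to compound for 24 h at 37 °C; on the % scale 0 is the no-effect control and ±100 the full control effect; nearly all actives have a fitted effect of over 60% in size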)
# Method in brief: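 Cells seeded at 2500/well and rested 5 hr at 37 C; compounds added over a concentration range and incubated 24 hr at 37 C; CellTiter-Glo added, 30 min at room temperature; luminescence read and AC50 fitted with Hill model.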
# [4] = biological target: Bile acid receptor (Homo sapiens) (UniProt Q96RI1); assay: qHTS assay for small molecule antagonists of farnesoid X receptor signaling (AID 588526); details: HEK293T FXR-UAS-bla, beta-lactamase ratio, antagonist mode; activity change, negative = inhibition: at 76.7 µM (top of the series); further: on the % scale 0 is the no-effect control and ±100 the full control effect
# UniProt Q96RI1, sequence (Q96RI1 whole entry, looked up): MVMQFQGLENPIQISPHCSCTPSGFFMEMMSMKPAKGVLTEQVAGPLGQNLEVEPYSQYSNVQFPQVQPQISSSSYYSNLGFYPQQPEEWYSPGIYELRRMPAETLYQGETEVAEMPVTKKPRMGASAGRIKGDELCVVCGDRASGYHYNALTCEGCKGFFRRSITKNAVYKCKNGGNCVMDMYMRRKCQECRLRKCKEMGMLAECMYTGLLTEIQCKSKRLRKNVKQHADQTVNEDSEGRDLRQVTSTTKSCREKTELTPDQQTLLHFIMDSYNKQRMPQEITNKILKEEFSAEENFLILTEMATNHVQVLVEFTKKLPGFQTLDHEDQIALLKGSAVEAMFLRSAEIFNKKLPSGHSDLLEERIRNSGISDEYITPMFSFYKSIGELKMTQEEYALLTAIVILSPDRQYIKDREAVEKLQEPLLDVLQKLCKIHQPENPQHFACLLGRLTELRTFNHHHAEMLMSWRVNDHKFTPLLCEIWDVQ
# Method in brief: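 Concentration-response titrations were fitted to the Hill equation for half-maximal inhibition and maximal response, with data normalised to 50 uM chenodeoxycholic acid and DMSO control wells. Cells: FXR-UAS-bla HEK293T, dialyzed FBS.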
# [5] = biological target: Glucocorticoid receptor (Homo sapiens) (UniProt P04150); assay: qHTS assay for small molecule antagonists of glucocorticoid receptor signaling (AID 588533; active means well fitted inhibition curve with a large enough effect in the signal ratio, with a control signal flat, not every such curve was filed as active; inconclusive means small, poorly fitted or top-dose-only effect, or effect the other way, or a change in a side signal; the % refers to the signal ratio;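 further: cells stimulated with 2 nM dexamethasone as agonist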; further: potency means the concentration at half of the fitted maximal effect; on activity change, negative = inhibition: on the % scale 0 is the no-effect control and ±100 the full control effect); details: HeLa MMTV-bla, GRE beta-lactamase ratio, antagonist mode, 18 h; activity change, negative = inhibition: at 76.8 µM (top of the series) unless noted
# [6] = biological target: Peroxisome proliferator-activated receptor delta (Homo sapiens) (UniProt Q03181); assay: qHTS assay for small molecule antagonists of peroxisome proliferator-activated receptor delta signaling (AID 588535; active means well fitted inhibition curve with a large enough effect in the signal ratio, with a control signal flat, not every such curve was filed as active; inconclusive means small, poorly fitted or top-dose-only effect, or effect the other way, or a change in a side signal; inactive means no such curve, though single readings can be large or run the other way; the % refers to the signal ratio; further: potency means the concentration at half of the fitted maximal effect); details: HEK293T PPARd-UAS-bla, beta-lactamase FRET ratio, 18 h; activity change, negative = inhibition: at 76.7 µM (top of the series) unless noted
# UniProt Q03181, sequence (Q03181 whole entry, looked up): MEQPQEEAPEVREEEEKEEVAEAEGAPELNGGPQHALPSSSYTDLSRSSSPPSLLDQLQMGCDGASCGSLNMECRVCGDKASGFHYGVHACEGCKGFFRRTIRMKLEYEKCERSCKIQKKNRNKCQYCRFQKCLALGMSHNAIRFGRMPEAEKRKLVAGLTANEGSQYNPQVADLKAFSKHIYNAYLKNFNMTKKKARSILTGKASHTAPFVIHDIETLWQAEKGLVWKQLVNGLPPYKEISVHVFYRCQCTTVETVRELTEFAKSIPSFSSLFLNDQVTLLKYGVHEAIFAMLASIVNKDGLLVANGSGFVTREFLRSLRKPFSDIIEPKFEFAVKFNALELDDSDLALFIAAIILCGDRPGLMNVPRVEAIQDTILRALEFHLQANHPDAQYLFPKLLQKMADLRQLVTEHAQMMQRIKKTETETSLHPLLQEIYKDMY
# Method in brief: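 Inhibition of PPAR-delta response element-driven beta-lactamase expression is measured in HEK293T cells exposed to a compound titration series for 18 hrs at 37 C. Half-maximal inhibition comes from Hill equation fitting.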
# [7] = biological target: Peroxisome proliferator-activated receptor gamma (Homo sapiens) (UniProt P37231); assay: qHTS assay for small molecule antagonists of peroxisome proliferator-activated receptor gamma signaling (AID 588537; active means well fitted inhibition curve with a large enough effect in the signal ratio, with a control signal flat, not every such curve was filed as active; inconclusive means small, poorly fitted or top-dose-only effect, or effect the other way, or a change in a side signal; the % refers to the signal ratio; further: potency means the concentration at half of the fitted maximal effect;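 further: reporter cells co-stimulated with 50 nM rosiglitazone agonist during compound treatment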; on activity, negative = inhibition: % of control where 0% means no effect); details: HEK293 PPARg-UAS-bla, beta-lactamase ratio, antagonist mode; activity, negative = inhibition: at 76.8 µM (top of the series)
# Method in brief: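 Compounds are tested as concentration series for inhibition of rosiglitazone-driven (50 nM) reporter expression in GeneBLAzer PPAR-gamma-UAS-bla HEK293 cells. After 16 h at 37 C, CCF4 substrate is added for 2 h at room temperature and blue/green fluorescence is measured.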
# [8] = qHTS assay for small molecule agonists of the antioxidant response element (ARE) signaling pathway (AID 651741; active means well fitted activation curve with a large enough effect in the signal ratio; inconclusive means small, poorly fitted or top-dose-only effect, or effect the other way, or a change in a side signal; the % refers to the signal ratio; further: % of control where 0% means no effect); details: HepG2 ARE-bla reporter, beta-lactamase FRET ratio, 16 h
# Method in brief: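 Reporter: beta-lactamase under ARE, stably in HepG2. Exposure: 16 h, 37 C, compounds delivered in DMSO by pin tool after 5 h cell preincubation. Readout: FRET substrate fluorescence after 2 h at RT.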
# [9] = qHTS assay to identify small molecules that stimulate interleukin-8 (IL-8) secretion (AID 651758; active means well fitted activation curve with a large enough effect in the signal ratio; inconclusive means small, poorly fitted or top-dose-only effect, or effect the other way, or a change in a side signal; the % refers to the signal ratio; further: 0% is about no effect); details: HTRF ratio (665/615)
# Method in brief: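 Quantitative HTS in THP-1 monocytic cells at 2000 cells per well, with 16 hrs compound incubation at 37 C. IL-8 in the medium was then quantified by HTRF immunoassay, read after 1-3 hrs at room temperature.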
# [10] = biological target: Bile acid receptor (Homo sapiens) (UniProt Q96RI1); assay: qHTS assay for small molecule agonists of farnesoid X receptor signaling (AID 588527); details: HEK293T FXR-UAS-bla, beta-lactamase ratio, 16 h; activation: hits give high values;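 further: 0% = vehicle basal and 100% = reference agonist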
# Method in brief: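 Agonist-mode beta-lactamase reporter in GeneBLAzer FXR-UAS-bla HEK293T cells, titration up to 92 uM, 16 h exposure at 37 C, CCF4 fluorescence. Response scaled to DMSO (0%) and 100 uM chenodeoxycholic acid (100%), then Hill-fitted for EC50 and efficacy.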
# [11] = biological target: Peroxisome proliferator-activated receptor delta (Homo sapiens) (UniProt Q03181); assay: qHTS assay for small molecule agonists of peroxisome proliferator-activated receptor delta signaling (AID 588534); details: HEK293T PPARdelta-UAS-bla, beta-lactamase ratio, 18 h; activation: at 76.7 µM (top of the series);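 further: 0% = DMSO basal wells and 100% = positive control agonist at 10 µM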
# Method in brief: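 Agonist-mode qHTS; reporter cells, 5 hrs 37 C pre-incubation; compound titration, 18 hrs 37 C; CCF4 dye, 2 hrs RT; fluorescence read. EC50/efficacy via Hill fit.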
# [12] = biological target: Peroxisome proliferator-activated receptor gamma (Homo sapiens) (UniProt P37231); assay: qHTS assay for small molecule agonists of peroxisome proliferator-activated receptor gamma signaling (AID 588536; active means well fitted curve in the direction sought with a large enough effect in the signal ratio, with a control signal flat, not every such curve was filed as active; inconclusive means small, poorly fitted or top-dose-only effect, or effect the other way, or a change in a side signal; inactive means no such curve, though single readings can be large or run the other way; the % refers to the signal ratio; further: potency means the concentration at half of the fitted maximal effect;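 on activation: 0% = DMSO basal wells and 100% = rosiglitazone at 2 µM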); details: HEK293 PPARg-UAS-bla, beta-lactamase ratio, 16 h; activation: at 76.7 µM (top of the series), percent of rosiglitazone response, DMSO as zero unless noted
# Method in brief: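 This is an agonist-mode beta-lactamase reporter assay in HEK293 PPAR-gamma-UAS-bla cells with 1% charcoal/dextran FBS. Compound titrations ran 16 h at 37 C before CCF4 detection. EC50 and efficacy are Hill fits scaled to 2 uM rosiglitazone (100%) and DMSO basal.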
# [13] = biological target: Vitamin D3 receptor (Homo sapiens) (UniProt P11473); assay: qHTS assay for small molecule antagonists of vitamin D receptor signaling (AID 588541); details: HEK293T VDR-UAS-bla, beta-lactamase ratio, antagonist mode; activity change, negative = inhibition: at 76.7 µM (top of the series);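 further: receptor activated by calcitriol during compound treatment; on the % scale 0 is the no-effect control and ±100 the full control effect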
# [14] = biological target: Vitamin D3 receptor (Homo sapiens) (UniProt P11473); assay: qHTS assay for small molecule agonists of vitamin D receptor signaling (AID 588543); details: HEK293T VDR-UAS-bla, beta-lactamase ratio, 16 h; activation: at 76.8 µM (top of the series); further: potency means the concentration at half of the fitted maximal effect
# Method in brief: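 β-lactamase reporter, VDR-UAS-bla HEK293T, agonist mode. Cells plated 5 h at 37 °C, compound titration 16 h at 37 °C, CCF4 dye 2 h RT, ratio 460/530 nm. Hill fit → EC50, efficacy vs 50 nM 1α,25-(OH)2D3.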
# [15] = biological target: Peroxisome proliferator-activated receptor alpha (Homo sapiens) (UniProt Q07869); assay: qHTS assay for small molecule agonists of the peroxisome proliferator-activated receptor alpha (PPARalpha) signaling pathway (AID 651778; active means well fitted curve in the direction sought with a large enough effect; inconclusive means small, poorly fitted or top-dose-only effect, or another doubt; inactive means no such curve, though single readings can be large; an effect the other way counts as inactive or inconclusive; further: potency means the concentration at half of the fitted maximal effect); details: PathHunter PPARalpha complementation, chemiluminescence, 6 h; max response: hits give high values
# UniProt Q07869, sequence (Q07869 whole entry, looked up): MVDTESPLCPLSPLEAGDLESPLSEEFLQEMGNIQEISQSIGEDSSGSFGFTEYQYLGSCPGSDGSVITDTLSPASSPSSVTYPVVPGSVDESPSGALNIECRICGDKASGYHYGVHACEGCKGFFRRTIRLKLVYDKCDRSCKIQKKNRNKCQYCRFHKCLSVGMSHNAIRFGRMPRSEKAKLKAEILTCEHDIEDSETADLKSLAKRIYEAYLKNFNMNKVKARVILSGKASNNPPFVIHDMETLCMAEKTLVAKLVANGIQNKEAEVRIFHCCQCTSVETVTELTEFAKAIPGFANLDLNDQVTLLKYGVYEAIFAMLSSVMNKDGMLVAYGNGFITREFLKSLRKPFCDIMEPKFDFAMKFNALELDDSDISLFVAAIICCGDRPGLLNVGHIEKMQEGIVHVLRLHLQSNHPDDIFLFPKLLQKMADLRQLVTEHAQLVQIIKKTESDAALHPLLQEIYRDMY
# Method in brief: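 Cells plated at 2,000/well and held overnight at 37 C, 5% CO2, then compound added by pin tool for 6 hr; after PathHunter detection reagent and 60 min at room temperature, chemiluminescence from enzyme complementation was read.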
# [16] = qHTS assay for small molecule agonists of the antioxidant response element (ARE) signaling pathway measured by Nrf2-dependant transcriptional activity (AID 720636; active means well fitted curve in the direction sought with a large enough effect in the repeat runs; inconclusive means weak or mixed curves; inactive means no such curve, though single readings can be large; an effect the other way counts as inactive or inconclusive;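 further: HepG2 cells with an ARE-driven luciferase reporter; % of control where 0% means no effect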)
# Method in brief: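 First, ARE-luc HepG2 cells attached for 6 hr at 37 C in 1% dialyzed FBS medium. Next, compound or DMSO was added and incubated 16 hr. Finally, ONE-Glo reagent was added and luminescence measured after 30 min.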
# [17] = biological target: Glucocorticoid receptor (Homo sapiens) (UniProt P04150); assay: qHTS assay for small molecule agonists of glucocorticoid receptor signaling (AID 588532; active means well fitted curve in the direction sought with a large enough effect in the signal ratio, with a control signal flat; inconclusive means small, poorly fitted or top-dose-only effect, or a change in a side signal; inactive means no such curve, though single readings can be large or run the other way; the % refers to the signal ratio; further: potency means the concentration at half of the fitted maximal effect;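 on activation: 100% = dexamethasone at 0.1 µM and 0% = DMSO only wells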); details: HeLa MMTV-bla, beta-lactamase ratio, agonist, 18 h; activation: hits give high values, percent of dexamethasone control, DMSO zero
# Method in brief: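 Stimulation of a glucocorticoid response element-driven beta-lactamase gene was measured in HeLa cells. Responses were scaled between DMSO basal and 0.1 uM dexamethasone, then fitted for half-maximal stimulation.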
# [18] = biological target: Retinoic acid receptor RXR-alpha (Homo sapiens) (UniProt P19793); assay: qHTS assay for small molecule agonists of retinoid X receptor alpha signaling (AID 588544); details: HEK293T RXRa-UAS-bla, beta-lactamase reporter, 18 h; activation: at 76.7 µM (top of the series) unless noted;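 further: 0% = DMSO basal wells and 100% = reference agonist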
# UniProt P19793, sequence (P19793 whole entry, looked up): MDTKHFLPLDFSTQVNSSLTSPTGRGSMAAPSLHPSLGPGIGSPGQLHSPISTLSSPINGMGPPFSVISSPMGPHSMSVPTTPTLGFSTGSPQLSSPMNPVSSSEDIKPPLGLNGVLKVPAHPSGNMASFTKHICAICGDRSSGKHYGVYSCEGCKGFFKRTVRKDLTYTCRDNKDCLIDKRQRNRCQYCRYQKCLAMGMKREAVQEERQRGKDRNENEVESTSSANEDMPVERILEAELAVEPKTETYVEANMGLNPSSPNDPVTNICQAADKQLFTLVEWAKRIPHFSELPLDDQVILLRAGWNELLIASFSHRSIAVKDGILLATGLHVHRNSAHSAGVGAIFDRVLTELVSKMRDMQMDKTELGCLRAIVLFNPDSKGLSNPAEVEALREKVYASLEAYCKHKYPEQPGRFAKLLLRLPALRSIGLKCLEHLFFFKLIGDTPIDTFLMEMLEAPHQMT
# [19] = biological target: Thyroid hormone receptor beta (Homo sapiens) (UniProt P10828); assay: qHTS assay for small molecule agonists of thyroid hormone receptor beta signaling (AID 588545); details: TR-UAS-bla GripTite HEK 293, beta-lactamase ratio, agonist mode, 18 h; activation: at 76.7 µM, percent of T3 response, DMSO as zero; further: potency means the concentration at half of the fitted maximal effect
# UniProt P10828, sequence (P10828 whole entry, looked up): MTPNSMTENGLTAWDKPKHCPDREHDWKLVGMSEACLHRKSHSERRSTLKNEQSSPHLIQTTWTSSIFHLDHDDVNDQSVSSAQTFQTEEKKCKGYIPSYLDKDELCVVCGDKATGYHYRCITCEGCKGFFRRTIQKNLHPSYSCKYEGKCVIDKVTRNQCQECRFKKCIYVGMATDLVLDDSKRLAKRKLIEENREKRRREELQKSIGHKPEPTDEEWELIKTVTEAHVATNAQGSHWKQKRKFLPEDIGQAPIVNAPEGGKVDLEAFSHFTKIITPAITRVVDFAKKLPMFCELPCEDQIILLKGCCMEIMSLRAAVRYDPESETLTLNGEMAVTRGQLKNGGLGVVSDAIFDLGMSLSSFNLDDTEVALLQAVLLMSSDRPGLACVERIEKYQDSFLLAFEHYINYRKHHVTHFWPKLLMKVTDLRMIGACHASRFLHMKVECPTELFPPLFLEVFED
# Method in brief: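 Agonist activity was read as beta-lactamase CCF4 fluorescence (405 ex, 460/530 em), scaled between DMSO (0%) and 10 nM T3 (100%), then Hill-fitted for EC50 and efficacy. HEK 293 TR-UAS-bla cells in 2% charcoal/dextran FBS medium were exposed 18 h at 37 C.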
# [20] = biological target: Thyroid hormone receptor beta (Homo sapiens) (UniProt P10828); assay: qHTS assay for small molecule antagonists of thyroid hormone receptor beta signaling (AID 588547; active means well fitted inhibition curve with a large enough effect in the signal ratio, with a control signal flat, not every such curve was filed as active; inconclusive means small, poorly fitted or top-dose-only effect, or effect the other way, or a change in a side signal; the % refers to the signal ratio; further: potency means the concentration at half of the fitted maximal effect); details: TR-UAS-bla HEK293, beta-lactamase ratio, antagonist mode, 18 h
# Method in brief: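 TR-UAS-bla GripTite HEK293 cells in 2% charcoal/dextran FBS medium were preincubated 4 h at 37 C, given compound (0.59 nM to 92 uM) plus 0.4 nM T3 (final) for 18 h, then CCF4 for 2 h at RT; Hill fit gave IC50.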
# [21] = Cell Viability - LYMP2-001 (AID 921; active means well fitted curve in the direction sought with a large enough effect; inconclusive means small, poorly fitted or top-dose-only effect, or another doubt; inactive means no such curve, though single readings can be large; an effect the other way counts as inactive or inconclusive;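 further: cells exposed to compound for 24 h at 37 °C; 0% = DMSO only and full inhibition = tetraoctylammonium bromide control wells; nearly all actives have a fitted effect of over 70% in size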); details: LYMP2-001 lymphoblastoid cell viability; activity change, negative = cytotoxic: at 92.2 µM (top of the series)
# Method in brief: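 CellTiter-Glo luminescence (intracellular ATP) after 24 hr compound exposure at 37 C, 2500 lymphoblastoid cells/well in complete medium. AC50 fitted with standard Hill equation; tetraoctylammonium bromide positive control.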
# [22] = Cell Viability - LYMP2-004 (AID 966; active means well fitted curve in the direction sought with a large enough effect; inconclusive means small, poorly fitted or top-dose-only effect, or another doubt; inactive means no such curve, though single readings can be large; an effect the other way counts as inactive or inconclusive;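 further: cells exposed to compound for 24 h; plate controls were DMSO only for no effect and tetraoctylammonium bromide control for full effect; nearly all actives have a fitted effect of over 65% in size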); details: LYMP2-004 lymphoblastoid cell viability, qHTS; activity change, negative = cytotoxicity: at 92.2 µM (top of the series)
# Method in brief: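 qHTS cytotoxicity: human lymphoblastoid line, 24 hr compound treatment, 37 C, complete medium. Viability read as cellular ATP via luciferase luminescence; tetraoctylammonium bromide served as positive control.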
# [23] = qHTS assay for small molecule disruptors of the mitochondrial membrane potential - 5 hr assay (AID 651755); details: JC-1-type ratio dye; ratio change, negative = disruption: at 92.2 µM (top of the series); further: on the % scale 0 is the no-effect control and ±100 the full control effect; nearly all actives have a fitted effect of over 40% in size
# Method in brief: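 Seed HepG2 overnight, add compound, incubate 5 hr at 37C and 5% CO2, stain 30 min with Mito-MPS, then measure monomer (490/535 nm) and aggregate (540/590 nm) fluorescence.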
# [24] = activation: at 96 µM (top of the series) unless noted
# [25] = activation: at 92.2 µM (top of the series)
# Tags describe the fitted curve by direction and shape or compound fluorescence and quenching.
smiles,measurement,setting,value
CC(C)(Cl)[N+](=O)[O-],Potency,[1],inactive
same,Potency,[2],inactive
same,Potency,[3],inactive
same,Potency,[4],inactive
same,"activity change, negative = inhibition",[5],inconclusive: 6.14%
same,"activity change, negative = inhibition",[6],inconclusive: -27.7%
same,Potency,[7],inactive
same,Potency,[8]; [24],inactive
same,activation,[9]; [25],inconclusive: 16.4%
COC(=O)C(C)Oc1ccc(Oc2ccc(Cl)cc2Cl)cc1 (stereo not given),activation,[10],inactive: -6.35%
same,Potency,[5],"inconclusive: 17.8 µM [inhibitor, partial curve, poor fit]"
same,Potency,[11],inactive
same,Potency,[6],"inconclusive: 50.1 µM [side channel, rising, single point]"
same,Potency,[12],"inconclusive: 15.8 µM [activator, partial curve]"
same,Potency,[7],"inconclusive: 44.7 µM [falling, partial curve]"
same,"activity change, negative = inhibition",[13],inconclusive: 8.06%
same,Potency,[14],"inconclusive: 25.1 µM [side channel, rising, partial curve, poor fit]"
same,activation,[8]; [24],inconclusive: 3.7%
same,Potency,[15],"inconclusive: 44.7 µM [activator, partial curve]"
same,Potency,[16],inactive
CCN(CC)C(=O)C(C)Oc1cccc2ccccc12 (stereo not given),Potency,[4],inactive
same,"activity change, negative = inhibition",[6],inconclusive: 27.7%
same,Potency,[7],inactive
same,Potency,[8]; [24],inactive
C=CC(=C)CCC=C(C)C,Potency,[17],"inconclusive: 5.62 µM [side channel, falling, partial curve, poor fit]"
COC(=O)c1ccccc1S(=O)(=O)NC(=O)Nc1nc(C)nc(OC)n1,Potency,[4],inactive
same,Potency,[6],inactive
same,activation,[18],inconclusive: 15%
same,activation,[19],inactive: -3.41%
same,Potency,[20],"inconclusive: 39.8 µM [activator, single point]"
O=C=NC1CCCCC1,"activity change, negative = cytotoxic",[21],inconclusive: -32% [cytotoxic]
same,Potency,[1],inactive
same,"activity change, negative = cytotoxicity",[22],inconclusive: 31.9%
same,Potency,[17],"inconclusive: 0.0891 µM [side channel, falling, full curve, poor fit]"
same,activation,[17],inactive: 10.3%
same,Potency,[6],"inconclusive: 50.1 µM [side channel, rising, single point]"
same,"activity change, negative = inhibition",[6],inconclusive: -13.7%
same,Potency,[12],inactive
same,Potency,[7],inactive
same,Potency,[19],"inconclusive: 39.8 µM [side channel, falling, single point]"
same,activation,[8]; [24],inconclusive: 5.43%
same,activation,[8]; at 96 µM (top of the series),inactive: 4.65%
same,Potency,[23],inactive
same,activation,[9]; at 92.2 µM (top of the series),inactive: 2.88%
same,activation,[9]; [25],inconclusive: 0.714%
